The source of these data is article PMC12136788.

This is one part of the list.

B1: chr1:64832709:64832810:+|3pUTR|ENSG00000162437|msi1|FALSE|bound_elsewhere (ssRNA)
RNA: GGGAGUUCUACAGUCCGACGAUCACAGCUAGAAAGUUUAAGGUAAUUUCUAAGUAUACUACCUAUAAGUAACUGAUAAGAAUUAGGCAUCAUUCAGUGAUAUAGCAGAUGACUAAUGGGUUUUUCAGGCCCUGCACUUCUCUUCAACAGAGGAUUGAGCAUCA
B2: chr15:65327126:65328908:-|three_prime_utr|ENSG00000174498|control|control|control (ssRNA)
RNA: GGGAGUUCUACAGUCCGACGAUCUGAACUAACAUUUUUCUUUAAAAAGCAAAACUUAAAAAAAAAAAAAAAGAGGAGAGAGAUAGAGGAAGGUGAAUUAGACUCCAAAAGAUGACCCUGCUGUAGCUGGGCCCUGACACUGUCCAACAGAGGAUUGAGCAUCA
B3: chr4:174259701:174259819:-|CDS|ENSG00000164117|unk|FALSE|unique (ssRNA)
RNA: GGGAGUUCUACAGUCCGACGAUCAAAUCCACUUGGGGUCACUGUUCCAUAUACAAUAAGAACCCACCUUUAGGAUUUUCUUUUAGAAAAUUGUAUAUGCAGCUGGAUGAAGGCAGCCUCACCUUUAAUGCCAACCCAGAUGAGCAACAGAGGAUUGAGCAUCA
B4: chr3:11557161:11557262:-|3pUTR|ENSG00000144560|msi1|total|mutant (ssRNA)
RNA: GGGAGUUCUACAGUCCGACGAUCCCUCUGACUUUAUACUGUUAUUACUGCAUUUAUUAUUUGCUAUAUUAACCGCUACUAACCCGAAAUCCGAUGAAGCAAGCAUGACAGACACAGCUGUGGAGGUCACAGCUGCUCCUUUUUCAACAGAGGAUUGAGCAUCA
B5: chr1:113590523:113590624:+|CDS|ENSG00000081026|unk|FALSE|unique (ssRNA)
RNA: GGGAGUUCUACAGUCCGACGAUCUCAUCUGACUGGAUGAAGACUGUUCCAAGUUACAACCAAACAAAUAGCUCCAUGGACUUUAGAAAUUAUAUGAUGAGAGAUGAGACUCUGGAACCACUGCCCAAAAACUGGGAAAUGGCCCAACAGAGGAUUGAGCAUCA
B6: chr1:17826356:17826472:+|CDS|ENSG00000117148|unk|FALSE|unique (ssRNA)
RNA: GGGAGUUCUACAGUCCGACGAUCAGGGAGCUGAUGGGGGAUCACGUCUCCUCCACCAAGGCCACAGUCUGGGAGGGUUCCAAUAGAAACUUUAGUGUCUGGCUAGGAGCGUCCGUGGUGGCUCACCUUUCUACCUACCAGUCUCAACAGAGGAUUGAGCAUCA
B7: chr2:96375651:96375752:+|3pUTR|ENSG00000121152|unk|total|mutant (ssRNA)
RNA: GGGAGUUCUACAGUCCGACGAUCAUUGACUAAGACAGUGGGUAUGCAAGAUAAGUUUAUUUUAUAUAAAAUACUUUGGGAAGCCGGUGUUCCCGGACUGGUGUGACAGUUCCAUGAAAUUAUGAGAGACCGGGGAUCCUUCCACAACAGAGGAUUGAGCAUCA
B8: chr11:27368498:27368690:-|CDS|ENSG00000205213|msi1|FALSE|unique (ssRNA)
RNA: GGGAGUUCUACAGUCCGACGAUCACCCCUUUGUUUGCCAUUUCCUACAGGUGAAACGCCAUCAUUAGGAUUCACUGUAACGUUAGUGCUAUUAAACUCACUAGCAUUUUUAUUAAUGGCCGUUAUCUACACUAAACUAUACUGCAACAGAGGAUUGAGCAUCA
B9: chr2:96301550:96301651:-|CDS|ENSG00000144028|msi1|total|mutant (ssRNA)
RNA: GGGAGUUCUACAGUCCGACGAUCAAGGCGAAAGGAGAUUGACCUGCUGCUGGGUCAAACAGAUGAUACCAGAUACCAUGUGCCCGUGAACCUGGGCAAAAAGAUCACAGACUAUGGUGGAGAUAAGGAAAUCCAAAAUAUGGGCAACAGAGGAUUGAGCAUCA
B10: chr12:48145849:48145950:+|3pUTR|ENSG00000152556|msi1|total|mutant (ssRNA)
RNA: GGGAGUUCUACAGUCCGACGAUCCAUGACCAGUUCUGGCCAGGAGCUGGAGGAGCAGGCAGUGGGUGGGAGCUCCUUUCCGGCCGAAUUUAACAUGACUUCUGCCCCAGCUUUAUCUGUCACACAAGGCUGGGCACCUCCCGUCAACAGAGGAUUGAGCAUCA
B11: chr1:62654060:62654161:-|CDS|ENSG00000116641|unk|FALSE|unique (ssRNA)
RNA: GGGAGUUCUACAGUCCGACGAUCCUUGUUUUCUACCCAUCUCUUAUCCCAACUUUUUACAAAGGUGCCCCUUACCGAAGCAGUAGAUCCAGUGGAUUUGGAAGAUUACCUCAUUACUCAUCCUUUGGCUGUGGAUUCUGGGCCCAACAGAGGAUUGAGCAUCA
B12: chr4:106367042:106367435:-|CDS|ENSG00000250298|control|control|control (ssRNA)
RNA: GGGAGUUCUACAGUCCGACGAUCUUGUAGCCUGGGCCGCAGUUGUCACCUCCACAGCUUCAUGCGUCGAGGUGGGCUAGAGGUAGCCCUGCAGGUCCAGGUGUUGGACACUCCAGGUUAUCCACACAGCAGGCUGAGCAAGAACAACAGAGGAUUGAGCAUCA
B13: chr1:111117940:111118053:-|3pUTR|ENSG00000156171|unk|total|mutant (ssRNA)
RNA: GGGAGUUCUACAGUCCGACGAUCAGGCUGACAGUAACACUGAUGAAUGCUGAUAAUCAGGAAACAUGAAAGAAGCCAUUUGACCGAUUAUUCUAAAGGAUAUCAUCAAGAAGACUAUUAAAAACACCUAUGCCUAUACUUUUUCAACAGAGGAUUGAGCAUCA
B14: chr17:41502224:41502594:-|three_prime_utr|ENSG00000171401|control|control|control (ssRNA)
RNA: GGGAGUUCUACAGUCCGACGAUCCACGUCUGGAGCAGGAGAUCGCCACCUACCGCAGCCUGCUCGAGGGCCAGGACGCCAAGUAGGUCCUCUCCAGCCUCUUUCUUAGGAUAGUGACUGCAGGACCCGUGGGUGUCAGAGCAGCAACAGAGGAUUGAGCAUCA
B15: chr3:111884732:111884833:+|CDS|ENSG00000144824|msi1|total|mutant (ssRNA)
RNA: GGGAGUUCUACAGUCCGACGAUCCUUCAACCCAAGUUAACCCGACACAAGGAGCUUGCAUCUGAAAACAUCAAUUUGAGAACCCGGAAGUACUCCAGCAGCAGCCUGAGUCACAUGGGAGCCUACAGCCGAUCACUUCCCAGGCAACAGAGGAUUGAGCAUCA
B16: chr17:63832812:63832858:-|3pUTR|ENSG00000108604|msi1_unk|total|mutant (ssRNA)
RNA: GGGAGUUCUACAGUCCGACGAUCCCAGCCCUGGAGCCUGGAGGGAGACCACCCUCUGGGUCCUUGCUGGGGCCGCAGACACGCCGGCUGGGGUGAGGAGUGUCUGCUGUCACCCUCUACUCUCCAGCUUCCGUCUUAUAAAUGCAACAGAGGAUUGAGCAUCA
B17: ENSG00000110497:stop:overlap|stop_codon|ENSG00000110497|stop_codon|NA|stop_codon (ssRNA)
RNA: GGGAGUUCUACAGUCCGACGAUCUGGAUGGUGGCAGCAGCAGGGGGGACGCUGCAGGCCCUAGGGGAGAACCACGGAACAGGUAGAGACAAACGUUGCACUGGUGCCUCCCCUCGAACCGCCAAGCAGAAACCGGACCUCACACAACAGAGGAUUGAGCAUCA
B18: chr3:58172026:58172127:+|3pUTR|ENSG00000136068|msi1|FALSE|unique (ssRNA)
RNA: GGGAGUUCUACAGUCCGACGAUCGGCAGACCUUUAGGUUUUGCUGCUUAGUCCUGAGGAAGUGGCCACUCUUGUGGCAGGUGUAGUAUCUGGGGCGAGUGUUGGGGGUAAAAGCCCACCCUACAGAAAGUGGAACAGCCCGGACAACAGAGGAUUGAGCAUCA
B19: chr1:54779711:54781242:-|three_prime_utr|ENSG00000006555|control|control|control (ssRNA)
RNA: GGGAGUUCUACAGUCCGACGAUCGGGACCCCGCCCAGGCCCCGCCCAGCUGAUGGGACCAGGUCCGGAUGGACUCCCUGCCUUAGGCUGACCUGGGAGCGGAGCCAGUUCGAUUCUUGGUCGGGAAUUGUGAAUGGGGAUGUUCAACAGAGGAUUGAGCAUCA
B20: chr10:91942452:91942553:+|CDS|ENSG00000095564|unk|total|mutant (ssRNA)
RNA: GGGAGUUCUACAGUCCGACGAUCAGUUCUAUGGAAGAUUCACCUACUACAGAGCGAUUGAAUUUUGACAGAUUUGAUAUAUGCCGAUUGUUACAACAUGGUGCAUCACUCCUGGGAUCUGCUGGUGCCGAAUUUGAAGUCCAACAACAGAGGAUUGAGCAUCA
B21: chr8:23844609:23844711:-|3pUTR|ENSG00000159167|msi1|total|mutant (ssRNA)
RNA: GGGAGUUCUACAGUCCGACGAUCUUCCGGGGUGUUGACACACCAGUUUUGAGUGUACUGUGCCUGGUUUGAUUUUUUUAAAGCCGUUCCUAUUUUCUAUCCCCCUUAAAGAAAAUUGCAUGAAACCCGGCUUCUGUAAUCAAUCAACAGAGGAUUGAGCAUCA
B22: ENSG00000159842:stop:overlap|stop_codon|ENSG00000159842|stop_codon|NA|stop_codon (ssRNA)
RNA: GGGAGUUCUACAGUCCGACGAUCACCCCCCCAUUUCCUUCGCAGAACUCAAGCGGAACACACUGUACUUCUCCACCGACGUGUAGCCCGAGGCAGGGUGGCUGCGGGCGGGUGGUGGAACCAGCCCCUCCAGCCUGGGGUCCACAACAGAGGAUUGAGCAUCA

For this assay, the target named is MSI1 full-length (mouse, UniProt Q61474 1-362). Put plainly: nsRBNS (natural sequence RNA bind-n-seq); RBNS binding buffer (assumed for nsRBNS): 25 mM Tris pH 7.5, 150 mM KCl, 3 mM MgCl2, 0.01% Triton X-100, 500 ug/ml BSA, 20 U/ml SUPERase-In, 4 C; UNK is unkempt and MSI1 is Musashi-1; names of the RNAs are library labels; protein concentration not given here; high values mean tight binding.
Sequence of UniProt Q61474 (Q61474 whole entry): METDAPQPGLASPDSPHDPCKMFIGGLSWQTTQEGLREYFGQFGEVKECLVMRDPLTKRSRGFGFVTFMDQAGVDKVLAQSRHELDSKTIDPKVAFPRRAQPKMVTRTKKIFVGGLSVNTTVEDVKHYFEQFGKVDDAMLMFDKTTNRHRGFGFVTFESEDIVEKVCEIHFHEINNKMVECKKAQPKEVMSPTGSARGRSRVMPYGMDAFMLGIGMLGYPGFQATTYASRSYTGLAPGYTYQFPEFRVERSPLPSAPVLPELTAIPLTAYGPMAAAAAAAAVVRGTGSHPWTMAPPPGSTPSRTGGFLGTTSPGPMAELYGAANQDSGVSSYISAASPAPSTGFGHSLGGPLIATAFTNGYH
B1 returned a binding signal of 6.13 enrichment R. To B2 belongs 1.12 enrichment R; to B3, 0.631 enrichment R. In turn, B4 came in with a binding signal of 0.732 enrichment R. B5 came in with a binding signal of 0.708 enrichment R.

In the case of B6, the binding signal stood at 1.17 enrichment R. To B7 belongs 0.62 enrichment R. To B8 belongs 1.09 enrichment R. To B9 belongs 0.411 enrichment R; to B10, 0.378 enrichment R; to B11, 0.626 enrichment R.

B12 yielded a binding signal of 0.439 enrichment R. In turn, B13 displayed a binding signal of 0.337 enrichment R. B14 registered a binding signal of 0.46 enrichment R. B15 gave a binding signal of 0.457 enrichment R. Regarding B16, the binding signal is 0.292 enrichment R.

Consider B17, for which the binding signal was 0.547 enrichment R. To B18 belongs 0.549 enrichment R. In turn, B19 had a binding signal of 0.416 enrichment R. To B20 belongs 0.269 enrichment R; to B21, 0.284 enrichment R.

For B22, the binding signal is 0.978 enrichment R.
